{"source": "PubChem BioAssay AID624417", "about": "(National Center for Advancing Translational Sciences (NCATS), 2012)", "note": "Screen size: about 410,000 compounds; about 6,400 (1.6%) were called active. The inconclusive results got no clear call from the source; some entries with a clear call stand among them for comparison. Calls follow the shape of the dose curve; as a rule, active = well fitted inhibition curve with a large enough effect; inconclusive = small, poorly fitted or top-dose-only effect; inactive = no such curve, though single readings can be large or run the other way. No potency is given beside an inconclusive call; the fits are too rough. % is scaled to controls: 0 for no effect and ±100 for the full control effect; potency is read from the fitted curve at half-maximal effect; tags tell the direction and shape of the fitted curve.", "data": [{"molecular_target": "Glucagon-like peptide 1 receptor (Homo sapiens) (UniProt P43220)", "sequence (P43220 whole entry, looked up)": "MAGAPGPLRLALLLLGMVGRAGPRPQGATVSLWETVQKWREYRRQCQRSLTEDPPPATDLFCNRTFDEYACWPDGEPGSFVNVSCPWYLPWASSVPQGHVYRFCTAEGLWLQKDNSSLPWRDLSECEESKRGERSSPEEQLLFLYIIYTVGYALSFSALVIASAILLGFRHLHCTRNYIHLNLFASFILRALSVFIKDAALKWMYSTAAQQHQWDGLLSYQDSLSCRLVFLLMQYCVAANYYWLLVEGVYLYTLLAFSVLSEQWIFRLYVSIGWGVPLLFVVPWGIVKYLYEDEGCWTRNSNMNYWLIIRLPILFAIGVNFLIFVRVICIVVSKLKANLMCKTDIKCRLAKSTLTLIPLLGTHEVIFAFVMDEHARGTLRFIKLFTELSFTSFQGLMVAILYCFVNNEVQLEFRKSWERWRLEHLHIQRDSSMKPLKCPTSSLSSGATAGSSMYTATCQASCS", "experiment": "qHTS of GLP-1 Receptor Inverse Agonists (Inhibition Mode); also: nearly all actives have a fitted effect of over 55% in size", "details": "HEK293 GLP-1R CRE-luciferase, luminescence, 24 h, GLP-1R form is constitutively active; activity change, negative = inhibition: at 38.3 µM (top of the series) unless noted", "how_it_was_run": "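Luminescence readout: a drop in cAMP-driven luciferase signal flags inverse agonism at a constitutively active GLP-1R stably expressed in HEK293. Compound exposure lasted 24 hr at 37 deg C, 5% CO2.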", "values": [{"smiles": "COc1ccc2[nH]c(C)c(CCNC(=S)Nc3ccccc3OC)c2c1", "activity change, negative = inhibition": "inactive: -27.8%"}, {"smiles": "COc1ccc([C@H]2/C=C\\CN(S(=O)(=O)c3ccc(C)cc3)[C@@H](C)C(=O)N2Cc2ccc(F)cc2)cc1", "Potency": "inconclusive [inhibitor, single point]"}, {"smiles": "CCCCNC(=O)CCC(=O)N1CCN(C(c2ccccc2)c2ccccc2)CC1", "Potency": "inconclusive [inhibitor, single point]"}, {"smiles": "Cc1nc(CS(=O)c2ccc(Cl)cc2)cc(NCc2ccc(Cl)cc2Cl)n1", "note": "(stereo not drawn)", "Potency": "inconclusive [inhibitor, partial curve, poor fit]"}, {"smiles": "CN(C1=NC(=O)C(CC(=O)O)S1)c1ccc(O)cc1", "note": "(stereo not drawn)", "activity change, negative = inhibition": "inactive: 1.55%"}, {"smiles": "Cc1cccc(C)c1NC(=O)C1(N(Cc2ccco2)C(=O)CC2NC(=O)NC2=O)CCCC1", "note": "(stereo not drawn)", "Potency": "inconclusive [inhibitor, single point]"}, {"smiles": "COc1cc2c(c(O)c1OC)C(=O)C(OC)CCC2", "note": "(stereo not drawn)", "activity change, negative = inhibition": "inactive: 22%"}, {"smiles": "CC1(OC(=O)C2CCCC2)C(=O)C=C2C=C(c3ccsc3)N(CC3CC3)C=C2C1=O", "note": "(stereo not drawn)", "Potency": "inconclusive [inhibitor, partial curve]"}, {"smiles": "CCn1cc(C(=O)NCCN(C)C)c(=O)c2cc(F)c(N3CCN(C)CC3)cc21", "activity change, negative = inhibition": "inconclusive: -77.4% [inhibitor]"}, {"smiles": "Cc1cc(O)ccc1Nc1nc(-c2cccs2)cs1", "Potency": "inconclusive [inhibitor, single point]"}, {"smiles": "COC(=O)N(NC(=O)C(O)(c1ccccc1)c1ccccc1)c1ccccc1", "Potency": "inconclusive [inhibitor, single point]"}, {"smiles": "COc1ccccc1CNC(=O)CN1c2cccc3cccc(c23)S1(=O)=O", "Potency": "inconclusive [inhibitor, single point]"}, {"smiles": "O=C(C[C@@H]1C/C=C\\CC[C@H](Cc2ccc(F)cc2)C(=O)OC[C@@H]2CCCN2C1=O)N[C@H](CO)Cc1ccccc1", "Potency": "inconclusive [inhibitor, partial curve, poor fit]"}, {"smiles": "COc1ccc(Br)cc1CNC(=O)C1CCCN(S(=O)(=O)N2CCC(C)CC2)C1", "note": "(stereo not drawn)", "Potency": "inconclusive [inhibitor, single point]"}, {"smiles": "CCOc1ccc(-c2nonc2NC(=O)c2oc3cc(Br)ccc3c2C)cc1", "Potency": "inconclusive [inhibitor, full curve, poor fit]"}, {"smiles": "CCCOc1ccc(F)cc1-c1cc(C(=O)Nc2ccc(C(C)C)cc2)[nH]n1", "Potency": "inconclusive [inhibitor, full curve, poor fit]"}, {"smiles": "CCc1ccc(NC(=O)N2CCCCCC2)cc1", "Potency": "inconclusive [inhibitor, single point]"}, {"smiles": "CCOc1ccc(NS(=O)(=O)c2cc(NC(=O)C3CC3)ccc2C)cc1Br", "Potency": "inconclusive [inhibitor, single point]"}, {"smiles": "CCc1cccc(C)c1NS(=O)(=O)c1ccc(-n2cccn2)cc1", "Potency": "inconclusive [inhibitor, single point]"}, {"smiles": "CCOc1ccc(NC(=O)CN(C)C(=O)c2ccc(N3CCCCCC3)c([N+](=O)[O-])c2)cc1OCC", "Potency": "inconclusive [inhibitor, single point]"}, {"smiles": "CC(=O)N1CCCc2cc(S(=O)(=O)NCc3ccc(OC(C)C)cc3)ccc21", "activity change, negative = inhibition": "inactive: -19.9%"}, {"smiles": "O=C(c1c[nH]c2ccccc12)N1CCN(Cc2ccccc2)CC1", "activity change, negative = inhibition": "inactive: -21%"}, {"smiles": "O=S1(=O)CCOC[C@H](CC2CCCCC2)N1Cc1cccc(C(F)(F)F)c1", "Potency": "inconclusive [inhibitor, single point]"}, {"smiles": "Cc1ccc2c(CN(C)Cc3ccc(OC(F)F)cc3)cc(=O)oc2c1C", "Potency": "inconclusive [inhibitor, partial curve, poor fit]"}, {"smiles": "CCc1[nH]nc2c1C(C1C=CCCC1)C(C#N)=C(N)O2", "note": "(stereo not drawn)", "Potency": "inconclusive [inhibitor, partial curve]"}, {"smiles": "O=C(CSc1nnc(-c2ccccn2)o1)Nc1ccccc1Cl", "Potency": "inconclusive [inhibitor, partial curve, poor fit]"}, {"smiles": "O=C(NC(=S)Nc1ccccc1Br)C1CCCCC1", "Potency": "inconclusive [inhibitor, partial curve, poor fit]"}, {"smiles": "CCCSC(=O)N(CC)CC(=O)Nc1c(CC)cccc1CC", "Potency": "inconclusive [inhibitor, single point]"}, {"smiles": "CC12CCC(/C(=C/NNc3ccc([N+](=O)[O-])cc3[N+](=O)[O-])C1=O)C2(C)C", "note": "(stereo not drawn)", "Potency": "inconclusive [inhibitor, single point]"}, {"smiles": "O=C(CCNC(=O)c1ccccc1)Nc1nc2ccccc2s1", "Potency": "inconclusive [inhibitor, partial curve, poor fit]"}, {"smiles": "Cc1ccccc1OCC(=O)N(Cc1ccc(C(C)C)cc1)C1CCS(=O)(=O)C1", "note": "(stereo not drawn)", "Potency": "inconclusive [inhibitor, single point]"}, {"smiles": "O=C(COc1ccc(Cl)cc1Cl)c1ccc[nH]1", "Potency": "inconclusive [inhibitor, partial curve, poor fit]"}, {"smiles": "CCCCN=C1NN=C(c2cc3ccccc3o2)CS1", "Potency": "inconclusive [inhibitor, single point]"}, {"smiles": "O=Cc1cc(N=Nc2ccccc2Cl)ccc1O", "Potency": "inconclusive [inhibitor, single point]"}, {"smiles": "CSc1ccccc1NC(=O)CO/N=C(\\C)c1cc2ccccc2o1", "Potency": "inconclusive [inhibitor, single point]"}, {"smiles": "CC1(C(=O)NCc2ccc(C(F)(F)F)cc2)CCN1C1Cc2ccccc2C1", "note": "(stereo not drawn)", "Potency": "inconclusive [inhibitor, single point]"}, {"smiles": "Cc1nc2ccccc2c2c1CC(C(C)(Cl)Br)O2", "note": "(stereo not drawn)", "Potency": "inconclusive [inhibitor, single point]"}, {"smiles": "O=c1oc(CCCO)cc2ccc(/C=C/c3cccc([N+](=O)[O-])c3)cc12", "activity change, negative = inhibition": "inactive: 33.7%"}, {"smiles": "CCc1cccc(NC(=O)c2coc(=O)c3ccccc23)c1", "Potency": "inconclusive [inhibitor, partial curve, poor fit]"}, {"smiles": "CC1(C(=O)NS(=O)(=O)c2ccccc2Cl)CCN1C(=O)c1cccc(F)c1", "note": "(stereo not drawn)", "activity change, negative = inhibition": "inactive: 5.93%"}, {"smiles": "CCC(c1nnc(SCC(=O)Nc2ccc(Cl)cc2C(F)(F)F)n1C1CCCCC1)N(C)C", "note": "(stereo not drawn)", "Potency": "inconclusive [inhibitor, partial curve, poor fit]"}, {"smiles": "Cc1ccc(CN2CC(C(=O)Nc3ccccc3N3CCCC3)CC2=O)cc1", "note": "(stereo not drawn)", "Potency": "inconclusive [inhibitor, single point]"}, {"smiles": "CCOc1ccc(NC(=S)NNC(=S)Nc2cccc(C(F)(F)F)c2)cc1", "Potency": "inconclusive [inhibitor, full curve, poor fit]"}, {"smiles": "Cc1ccc(C)c(CN2C(=O)C(O)(c3c[nH]c4ccccc34)c3ccccc32)c1", "note": "(stereo not drawn)", "Potency": "inconclusive [inhibitor, partial curve, poor fit]"}, {"smiles": "COc1cccc(N2CCN(C(=O)CCCCCNc3nc(=S)[nH]c4ccccc34)CC2)c1", "Potency": "inconclusive [inhibitor, single point]"}, {"smiles": "COc1ccc(OC)c(NC(=O)Nc2nnc([C@@H]3O[C@H](CO)[C@@H](O)[C@H]3O)s2)c1", "activity change, negative = inhibition": "inactive: 19%"}, {"smiles": "COc1ccccc1-c1cnn2c(NC3CCCC3)cc(C)nc12", "Potency": "inconclusive [inhibitor, partial curve, poor fit]"}, {"smiles": "COc1ccc(CCNC(=O)CCCn2c(=O)c3cccn3c3ccc(F)cc32)cc1OC", "activity change, negative = inhibition": "inactive: 159%"}, {"smiles": "CCc1cc2c(Sc3nc4ccccc4s3)ncnc2s1", "Potency": "active: 3.55 µM"}, {"smiles": "COCCCNC(=O)C1CCCN(S(C)(=O)=O)C1", "note": "(stereo not drawn)", "activity change, negative = inhibition": "inactive: 12.2%"}, {"smiles": "COc1ccc(C(=O)NCc2ccc(C)cc2)cc1S(=O)(=O)N1CCCc2ccccc21", "Potency": "inconclusive [inhibitor, single point]"}, {"smiles": "COCC1CCN(Cc2cn[nH]c2-c2cc3ccccc3o2)C1", "note": "(stereo not drawn)", "Potency": "inconclusive [inhibitor, partial curve, poor fit]"}, {"smiles": "Cc1ccc(-n2c3c(c(O)c(-c4ccccc4)c2=O)C(=O)CC(C)(C)C3)cc1", "Potency": "inconclusive [inhibitor, single point]"}, {"smiles": "Cc1ccc(C(=O)N2c3ccccc3Sc3ccccc32)cc1", "activity change, negative = inhibition": "inactive: -28.6%"}, {"smiles": "CCc1cc2c(=O)c(-c3ccc4c(c3)OCCO4)coc2c(CN2CCCCC2C)c1O", "note": "(stereo not drawn)", "Potency": "inconclusive [inhibitor, single point]"}, {"smiles": "CC1(C)C[C@@H]2C[C@@](C)(CN2C(=O)c2cc(COc3cccc(C(F)(F)F)c3)on2)C1", "Potency": "inconclusive [inhibitor, partial curve, poor fit]"}, {"smiles": "Cc1ccc(S(=O)(=O)N2CCN(C(=O)COC(=O)c3cc([N+](=O)[O-])ccc3NCCO)CC2)c(C)c1", "Potency": "inconclusive [inhibitor, single point]"}, {"smiles": "Cc1ccnc(NC(=O)c2oc3ccccc3c2C)c1", "Potency": "active: 11.2 µM"}, {"smiles": "COc1cc2c(cc1OC)C(COc1ccc(C(C)C)cc1)N(C(=O)COc1ccccc1)CC2", "note": "(stereo not drawn)", "Potency": "inconclusive [inhibitor, single point]"}, {"smiles": "CC1=NN(C(=O)c2ccc(Cn3nc(C)c(Br)c3C)cc2)C(O)(C(F)(F)F)C1", "note": "(stereo not drawn)", "Potency": "inconclusive [inhibitor, full curve, poor fit]"}, {"smiles": "COc1ccc(OCC(=O)N2c3ccccc3CC2C)c([N+](=O)[O-])c1", "note": "(stereo not drawn)", "Potency": "inconclusive [inhibitor, partial curve, poor fit]"}, {"smiles": "CCOC(=O)CSc1ncnc2c1c(-c1ccccc1)cn2-c1ccc(OC)cc1", "Potency": "inconclusive [inhibitor, partial curve, poor fit]"}, {"smiles": "CC1=NN(C(=O)c2ccc(C)cc2)C(O)(C(F)(F)OC(F)(F)F)C1", "note": "(stereo not drawn)", "Potency": "inconclusive [inhibitor, full curve, poor fit]"}]}]}
